Among all 310,000 compounds or so, about 14,000 (4.5%) showed an effect of 50% or more. Effects have a minus sign here. Some of the results follow.
Target: human ether-à-go-go-related gene (hERG) potassium channel (human, UniProt Q12809)
Assay: primary screen, population patch clamp on CHO cells stably expressing hERG
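Note: peak tail current of the secondary pulse compared with the same well before compound.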

Sequence of human ether-à-go-go-related gene (hERG) potassium channel (Q12809 whole entry, looked up): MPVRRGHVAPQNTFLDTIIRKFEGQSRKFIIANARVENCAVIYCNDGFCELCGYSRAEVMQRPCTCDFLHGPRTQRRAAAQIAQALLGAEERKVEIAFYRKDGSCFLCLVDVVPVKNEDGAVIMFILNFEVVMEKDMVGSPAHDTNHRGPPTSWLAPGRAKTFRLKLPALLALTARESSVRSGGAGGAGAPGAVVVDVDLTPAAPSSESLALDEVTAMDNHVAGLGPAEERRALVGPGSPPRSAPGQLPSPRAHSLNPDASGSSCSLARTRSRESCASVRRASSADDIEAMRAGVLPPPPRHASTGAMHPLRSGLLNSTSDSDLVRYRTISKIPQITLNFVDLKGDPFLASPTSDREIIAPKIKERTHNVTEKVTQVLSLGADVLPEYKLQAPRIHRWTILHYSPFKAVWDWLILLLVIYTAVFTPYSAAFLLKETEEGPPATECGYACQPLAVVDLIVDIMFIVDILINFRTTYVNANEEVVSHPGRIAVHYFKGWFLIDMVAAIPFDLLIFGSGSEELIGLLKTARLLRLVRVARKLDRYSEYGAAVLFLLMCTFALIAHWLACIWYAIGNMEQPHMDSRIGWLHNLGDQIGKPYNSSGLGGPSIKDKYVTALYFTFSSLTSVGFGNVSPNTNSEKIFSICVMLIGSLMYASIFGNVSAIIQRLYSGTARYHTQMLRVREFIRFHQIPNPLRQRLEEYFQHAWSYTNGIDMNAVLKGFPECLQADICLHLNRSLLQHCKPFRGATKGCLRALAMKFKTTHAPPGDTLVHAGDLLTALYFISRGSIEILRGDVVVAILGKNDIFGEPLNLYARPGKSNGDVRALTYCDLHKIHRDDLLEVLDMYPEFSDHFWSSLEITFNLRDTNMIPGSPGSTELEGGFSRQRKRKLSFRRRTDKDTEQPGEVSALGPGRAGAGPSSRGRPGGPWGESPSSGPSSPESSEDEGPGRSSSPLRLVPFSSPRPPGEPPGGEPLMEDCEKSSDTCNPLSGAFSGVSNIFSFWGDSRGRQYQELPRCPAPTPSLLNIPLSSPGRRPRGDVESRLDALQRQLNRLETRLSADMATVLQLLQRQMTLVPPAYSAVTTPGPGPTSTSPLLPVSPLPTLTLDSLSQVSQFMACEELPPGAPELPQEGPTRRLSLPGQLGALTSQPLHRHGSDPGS

Compound | hERG current change (%, negative = inhibition) at 10uM [%]
O=C1CC(N(O)c2ccccc2)C(=O)N1c1cc(Cl)cc(Cl)c1 (stereo not drawn) | 16.2
O=C(CCCN1C(=O)/C(=C/c2ccc(F)cc2)SC1=S)NCCCn1ccnc1 | -71
O=C(O)CCNC(=S)Nc1cccc(F)c1 | 21.9
CCc1ccc(NC(=O)Nc2cccs2)cc1 | 23
CSc1nc(NCc2ccccc2)c2c3c(sc2n1)CN(C)CC3 | -78
CCOC(=O)c1[nH]c2cc(OC)c(OC)cc2c1NC(=O)CCN1CCSCC1 | 7.85
CCCCn1c(-c2cccnc2)n[nH]c1=S | 19.9
CN(C)c1ccc(CNc2ncnc3sccc23)cc1 | -4.33
CCCN(CCC)CCNC(=O)CCC(=O)Nc1ccc2nc(N3CCOCC3)cc(C)c2c1 | -7.42
COc1ccccc1NC(=O)CSc1nnc(C)n1Cc1ccccc1 | -34.5
O=S(=O)(Nc1nc2ccccc2nc1NCc1ccco1)c1cccs1 | 4.13
COc1ccc(Br)cc1/C=N/NC(=O)c1cc(Br)ccc1O | 22.3
COc1ccc(-n2c(Cc3cc(=O)[nH]c(=O)[nH]3)nnc2SCc2ccccc2)cc1 | -0.325
CCN(CC(=O)Nc1ccc(NC(C)=O)cc1)C(=O)c1ccccc1Sc1ccccc1C#N | 23.1
CC(C)(C)Nc1nc(Cl)nc(NC(C)(C)C)n1 | 5.16
CCOC(=O)NC(=O)c1cn(Nc2ncc(Cl)cc2C(F)(F)F)c(=O)[nH]c1=O | 2.51
CN(C)c1nc(-c2ccc([N+](=O)[O-])cc2)cs1 | -5.29
COc1ccc(C(=O)N(c2ccccn2)C2CCCCC2)c(OC)c1 | 29.1
C=CCn1c(C(C)NC(=O)C(C)(C)C)nc2ccccc21 (stereo not drawn) | 10.7

Compound | hERG current change (%, negative = inhibition) at 10uM [%]
O=C(O)Cc1ccc2oc(-c3ccccn3)nc2c1 | 11.9
CCOC(=O)c1nnn(-c2nonc2N)c1-c1ccc(C)cc1 | -3.94
Cn1c(O)c(N=NC(=O)c2ccco2)c2ccccc21 | -2.82
O=C(CSCc1ccc(Cl)cc1)Nc1ccccc1C(=O)N1CCOCC1 | -9.68
CCOc1cc(/C=C2\SC(=S)N(C(C(=O)O)c3ccccc3)C2=O)ccc1O (stereo not drawn) | 11.5
COc1ccc(/C=C/C(=O)c2cc(Cl)cc(Cl)c2O)c(OC)c1 | 7.36
CCCNC(=O)c1ccc2c(=O)n(Cc3ccco3)c(=S)[nH]c2c1 | 13.9
O=C(c1ccc([N+](=O)[O-])cc1)N1CCSC1c1ccc(Cl)cc1 (stereo not drawn) | -76.9
CCOc1ccc(CCNC(=O)COC(=O)CNC(=O)c2ccc(Br)o2)cc1OCC | -40.6
Cc1cccc(-n2c(-c3cccc([N+](=O)[O-])c3)nc3nc4ccccc4nc32)c1 | -21.7
COc1ccc(S(=O)(=O)Nc2ccc(NC(C)=O)cc2)cc1OC | 11.2
CCn1c(COc2ccc(Cl)c(C)c2)nnc1SCC(=O)N1CCCC1 | -18.5
COc1ccc(C2CC(c3ccccc3)Nc3nc(NS(C)(=O)=O)nn32)cc1 (stereo not drawn) | 7.1
CN(C)CCn1c2c(c(SCC(=O)Nc3cccc4ccccc34)nc1=O)CCCC2 | -40.4
CCN1C(=O)C(=C/C=C/c2ccco2)C(=O)N(CC)C1=S | -18.5
COC(=O)c1ccccc1-c1ccc(C(c2c(C)[nH][nH]c2=O)c2c(C)[nH][nH]c2=O)o1 | 23.7
O=S(=O)(c1ccccc1S(=O)(=O)N1CCCCC1)N1CCCCC1 | -4.41
O=C(Nc1ccccn1)NC12CC3CC(CC(C3)C1)C2 | 3.77
CC(NC(=O)C1CCN(C(=O)Nc2ccccc2)CC1)c1ccccc1Cl (stereo not drawn) | 8.06

Compound | hERG current change (%, negative = inhibition) at 10uM [%]
COc1cccc(NC(=O)c2ccc(N3C(=O)C4CCC(C)CC4C3=O)cc2)c1 (stereo not drawn) | -32.5
CC(=O)c1ccc(N2CCN(C(=O)CN(C)S(=O)(=O)c3cnc[nH]3)CC2)cc1 | -0.0452
Cc1nn(Cc2ccccc2)c(C)c1C(=O)NCc1ccccc1F | 2.15
Cc1nnc(SCC(=O)NCc2ccc(Cl)cc2)[nH]c1=O | -2.82
O=C(c1ccc(Cl)cc1)C1CCCN(Cc2ccc(Oc3ncccn3)cc2)C1 (stereo not drawn) | -72.9
CC1Oc2ccccc2N(CC(=O)N2CCCC2)C1=O (stereo not drawn) | 14.1
O=C(N=NC(=O)c1ccco1)c1ccc2c(O)n(N3C(=O)c4ccccc4C3=O)c(O)c2c1 | 14.9
CC1CC(C)CN(CCCNC(=O)CN2C(=O)c3cccnc3Oc3ccc(Cl)cc32)C1 (stereo not drawn) | -30.7
CC(=O)CC(c1ccc([N+](=O)[O-])cc1)c1c(O)c2ccccc2oc1=O (stereo not drawn) | 2.36
CC(C)CC(NC(=O)/C(=C/c1ccco1)NC(=O)c1ccc(Br)o1)C(=O)O (stereo not drawn) | 23.1
N#CC1=C(N)Oc2cc(O)ccc2C1c1ccccc1 (stereo not drawn) | 15.5
O=C(C1CC1)N1CCC(Oc2cccc(C(=O)N3CCCCC3CCO)c2)CC1 (stereo not drawn) | 16.6
CCCN1CCC(NC(=O)c2cccc(Oc3ccccc3)c2)CC1 | -51.9
CNc1cc(N2CCCCCC2)ccc1[N+](=O)[O-] | -27.8
CCOC(=O)C1CCN(C(=O)/C(C)=C\c2ccccc2)CC1 | 3.07
O=C(CN1C(=O)/C(=C/c2ccco2)SC1=S)Nc1ccc(C(=O)O)c(O)c1 | 18.1
CC1CC(C)CN(CCCNC(=O)c2ccc3nc(N4CCOCC4)sc3c2)C1 (stereo not drawn) | -19.5
O=C(COC(=O)c1ccco1)Nc1nnc(-c2ccccc2)o1 | 21.4
O=c1[nH]c(C2CCN(S(=O)(=O)c3ccc(F)cc3)CC2)nc2c1nnn2Cc1ccc2c(c1)OCCO2 | 11.1
